The other results are listed elsewhere or left out.

This assay concerns the target T1, MBP-FoxP1dN (Mus musculus, UniProt P58462 326-579).
T1 sequence: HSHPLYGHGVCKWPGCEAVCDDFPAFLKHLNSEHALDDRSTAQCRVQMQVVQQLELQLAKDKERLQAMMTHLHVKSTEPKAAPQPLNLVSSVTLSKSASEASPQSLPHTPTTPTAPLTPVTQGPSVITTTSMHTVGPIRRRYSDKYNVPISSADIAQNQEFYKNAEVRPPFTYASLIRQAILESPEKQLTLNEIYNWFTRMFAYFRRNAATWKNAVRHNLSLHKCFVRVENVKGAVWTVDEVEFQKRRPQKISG
As to the kind of experiment: PD-seq (MBP pull-down with sequencing); 20 mM Tris-HCl pH 7.5, 100 mM NaCl, 1.5 mM MgCl2, 0.4 uM protein, 0.1 uM dsDNA library, 30 min, room temperature, amylose pull-down; high values mean tight binding. As to conditions: protein: recombinant; tags: His6-MBP; chain copies: 2; dsDNA, one strand shown. The procedure, abridged:
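His6-MBP-tagged mouse FoxP3 or FoxP1 fragment lacking the N-terminus, expressed in E. coli, was mixed at 0.4 µM with 0.1 µM Klenow-filled double-stranded degenerate DNA library. Incubation was 30 min at room temperature in Tris pH 7.5 buffer with NaCl and MgCl2. Complexes were caught on amylose resin and washed three times; DNA was released with proteinase K, PCR-barcoded and Illumina-sequenced. Binding is reads-per-million enrichment, pull-down over input, with replicates pooled.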
Take “GATGATTGTTCTCCCAGCTGATGAATTAGGGGGCTCGAGTAAACAAATTTTCCTAATCTTTCTGTTCAAGCGCCATCTAC”: the binding signal is 0.791 RPM ratio (pull-down/input). Next, “GATGATTGTTCTCCCAGCTGATGAATTCCGCACCTCGAGTAAACAAATTTTCCTAATCTTTCTGTTCAAGCGCCATCTAC”: 0.782 RPM ratio (pull-down/input); “GATGATTGTTCTCCCAGCTGATGAATTGGGTGACTCGAGTAAACAAATTTTCCTAATCTTTCTGTTCAAGCGCCATCTAC”: 0.92 RPM ratio (pull-down/input); “GATGATTGTTCTCCCAGCTGATGAATTACAGGTATCGAGTAAACAAATTTTCCTAATCTTTCTGTTCAAGCGCCATCTAC”: 1.23 RPM ratio (pull-down/input). Next, “GATGATTGTTCTCCCAGCTGATGAATTAAACTATTCGAGTAAACAAATTTTCCTAATCTTTCTGTTCAAGCGCCATCTAC”: 1.03 RPM ratio (pull-down/input); “GATGATTGTTCTCCCAGCTGATGAATTTCTTTCGTCGAGTAAACAAATTTTCCTAATCTTTCTGTTCAAGCGCCATCTAC”: 0.887 RPM ratio (pull-down/input); “GATGATTGTTCTCCCAGCTGATGAATTTACGTGATCGAGTAAACAAATTTTCCTAATCTTTCTGTTCAAGCGCCATCTAC”: 1.32 RPM ratio (pull-down/input). Consider “GATGATTGTTCTCCCAGCTGATGAATTAGCTGGGTCGAGTAAACAAATTTTCCTAATCTTTCTGTTCAAGCGCCATCTAC”, for which the binding signal was 0.747 RPM ratio (pull-down/input). The value for “GATGATTGTTCTCCCAGCTGATGAATTTCTCTATTCGAGTAAACAAATTTTCCTAATCTTTCTGTTCAAGCGCCATCTAC” was 0.936 RPM ratio (pull-down/input); that for “GATGATTGTTCTCCCAGCTGATGAATTAATTCCGTCGAGTAAACAAATTTTCCTAATCTTTCTGTTCAAGCGCCATCTAC” was 0.921 RPM ratio (pull-down/input); that for “GATGATTGTTCTCCCAGCTGATGAATTTGGAAATTCGAGTAAACAAATTTTCCTAATCTTTCTGTTCAAGCGCCATCTAC” was 0.93 RPM ratio (pull-down/input). The value for “GATGATTGTTCTCCCAGCTGATGAATTATATGTTTCGAGTAAACAAATTTTCCTAATCTTTCTGTTCAAGCGCCATCTAC” was 1.31 RPM ratio (pull-down/input); that for “GATGATTGTTCTCCCAGCTGATGAATTGGCAATTTCGAGTAAACAAATTTTCCTAATCTTTCTGTTCAAGCGCCATCTAC” was 0.975 RPM ratio (pull-down/input); that for “GATGATTGTTCTCCCAGCTGATGAATTAATTCGATCGAGTAAACAAATTTTCCTAATCTTTCTGTTCAAGCGCCATCTAC” was 0.92 RPM ratio (pull-down/input). The value for “GATGATTGTTCTCCCAGCTGATGAATTTATTTATTCGAGTAAACAAATTTTCCTAATCTTTCTGTTCAAGCGCCATCTAC” was 2.17 RPM ratio (pull-down/input); that for “GATGATTGTTCTCCCAGCTGATGAATTAAGACCATCGAGTAAACAAATTTTCCTAATCTTTCTGTTCAAGCGCCATCTAC” was 0.978 RPM ratio (pull-down/input). With “GATGATTGTTCTCCCAGCTGATGAATTGACGAATTCGAGTAAACAAATTTTCCTAATCTTTCTGTTCAAGCGCCATCTAC”, the binding signal is 1.24 RPM ratio (pull-down/input). The value for “GATGATTGTTCTCCCAGCTGATGAATTCAGATTATCGAGTAAACAAATTTTCCTAATCTTTCTGTTCAAGCGCCATCTAC” was 0.977 RPM ratio (pull-down/input); that for “GATGATTGTTCTCCCAGCTGATGAATTTAACTCGTCGAGTAAACAAATTTTCCTAATCTTTCTGTTCAAGCGCCATCTAC” was 0.885 RPM ratio (pull-down/input). Next, “GATGATTGTTCTCCCAGCTGATGAATTCCTTTTTTCGAGTAAACAAATTTTCCTAATCTTTCTGTTCAAGCGCCATCTAC”: 0.895 RPM ratio (pull-down/input); “GATGATTGTTCTCCCAGCTGATGAATTGCTCCATTCGAGTAAACAAATTTTCCTAATCTTTCTGTTCAAGCGCCATCTAC”: 0.991 RPM ratio (pull-down/input); “GATGATTGTTCTCCCAGCTGATGAATTTCATCGCTCGAGTAAACAAATTTTCCTAATCTTTCTGTTCAAGCGCCATCTAC”: 0.798 RPM ratio (pull-down/input). On to “GATGATTGTTCTCCCAGCTGATGAATTTTCCAACTCGAGTAAACAAATTTTCCTAATCTTTCTGTTCAAGCGCCATCTAC”, for which the binding signal was 0.887 RPM ratio (pull-down/input).

Consider “GATGATTGTTCTCCCAGCTGATGAATTTGCTGACTCGAGTAAACAAATTTTCCTAATCTTTCTGTTCAAGCGCCATCTAC”, for which the binding signal was 1.08 RPM ratio (pull-down/input). Next, “GATGATTGTTCTCCCAGCTGATGAATTCTATGAATCGAGTAAACAAATTTTCCTAATCTTTCTGTTCAAGCGCCATCTAC”: 0.911 RPM ratio (pull-down/input); “GATGATTGTTCTCCCAGCTGATGAATTGCTCGCATCGAGTAAACAAATTTTCCTAATCTTTCTGTTCAAGCGCCATCTAC”: 1.18 RPM ratio (pull-down/input); “GATGATTGTTCTCCCAGCTGATGAATTCAGTAACTCGAGTAAACAAATTTTCCTAATCTTTCTGTTCAAGCGCCATCTAC”: 0.879 RPM ratio (pull-down/input). The value for “GATGATTGTTCTCCCAGCTGATGAATTTATACGTTCGAGTAAACAAATTTTCCTAATCTTTCTGTTCAAGCGCCATCTAC” was 1.19 RPM ratio (pull-down/input); that for “GATGATTGTTCTCCCAGCTGATGAATTCGATGATTCGAGTAAACAAATTTTCCTAATCTTTCTGTTCAAGCGCCATCTAC” was 0.978 RPM ratio (pull-down/input); that for “GATGATTGTTCTCCCAGCTGATGAATTCAACGTGTCGAGTAAACAAATTTTCCTAATCTTTCTGTTCAAGCGCCATCTAC” was 0.875 RPM ratio (pull-down/input). For “GATGATTGTTCTCCCAGCTGATGAATTGAATCTATCGAGTAAACAAATTTTCCTAATCTTTCTGTTCAAGCGCCATCTAC”, the binding signal is 0.958 RPM ratio (pull-down/input).

For the origin of these results see article PMC12820563, “FoxP3 forms a head-to-head dimer in vivo and stabilizes its multimerization on adjacent microsatellites”.
